Data as given in the supplement of paper PMC4967469.
IC50 is the fitted dose that halves viability relative to control wells, and lower means more sensitive; fits outside the tested doses are given as limits. AUC sums up the same curve from the lowest dose to the 256-fold higher top dose; the more sensitive the line, the further below 1. An inferred top dose comes from the curve model; the source does not state it.

Columns and labels:
Assay in all cases: Viability of human cancer cell lines after 72 h of drug (GDSC screen)
BMS-509744 = compound: COc1cc(C)c(Sc2cnc(NC(=O)c3ccc(CNC(C)C(C)(C)C)cc3)s2)cc1C(=O)N1CCN(C(C)=O)CC1 [BMS-509744]; conditions: top dose 10.24 µM; top dose inferred
Experimental: (§1)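 Human cancer cell lines in 384-well plates, medium with 10% serum, drug for 72 h over a 256-fold dose range (nine 2-fold or five 4-fold steps up to the top dose). Adherent lines were fixed and stained with the nucleic acid dye Syto60, suspension lines read with resazurin; signal relative to control wells, capped at 0 and 100%. One two-parameter sigmoid per drug and line, fitted in a mixed model over all curves with the slope shared within a line.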

GSK-1904529A = compound: CCc1cc(Nc2nccc(-c3c(-c4ccc(OC)c(C(=O)Nc5c(F)cccc5F)c4)nc4ccccn34)n2)c(OC)cc1N1CCC(N2CCN(S(C)(=O)=O)CC2)CC1 [GSK-1904529A]; conditions: top dose 1.024 µM; top dose inferred
Experimental: as §1

PFI-1 = compound: COc1ccccc1S(=O)(=O)Nc1ccc2c(c1)CN(C)C(=O)N2 [PFI-1]; conditions: top dose 10 µM; top dose inferred
Experimental: as §1

Tipifarnib = compound: Cn1cncc1[C@@](N)(c1ccc(Cl)cc1)c1ccc2c(c1)c(-c1cccc(Cl)c1)cc(=O)n2C [Tipifarnib]; conditions: top dose 16 µM; top dose inferred
Experimental: as §1

NG-25 = compound: CCN1CCN(Cc2ccc(NC(=O)c3ccc(C)c(Oc4ccnc5[nH]ccc45)c3)cc2C(F)(F)F)CC1 [NG-25]; conditions: top dose 10.24 µM; top dose inferred
Experimental: as §1

| Cell Line | AUC (BMS-509744) | IC50 (BMS-509744) | AUC (GSK-1904529A) | IC50 (GSK-1904529A) | AUC (PFI-1) | IC50 (PFI-1) | AUC (Tipifarnib) | IC50 (Tipifarnib) | AUC (NG-25) | IC50 (NG-25) |
| --- | --- | --- | --- | --- | --- | --- | --- | --- | --- | --- |
| IST-SL2 (small cell lung carcinoma, suspension) | 0.901 | > 10.2 µM | 0.988 | > 1.02 µM | 0.975 | > 10 µM | 0.78 | 6.51 µM | – | – |
| JSC-1 (B-cell lymphoma, suspension) | 0.9 | > 10.2 µM | 0.979 | > 1.02 µM | – | – | 0.32 | 0.315 µM | 0.801 | 4.94 µM |
| KARPAS-231 (B-cell leukaemia, suspension) | 0.886 | 6.83 µM | 0.991 | > 1.02 µM | 0.922 | 9.38 µM | 0.437 | 0.7 µM | – | – |
| KASUMI-1 (acute myeloid leukaemia, suspension) | 0.96 | > 10.2 µM | – | – | 0.563 | 0.927 µM | – | – | – | – |
| KMS-12-BM (myeloma, suspension) | 0.842 | 5.44 µM | 0.991 | > 1.02 µM | – | – | 0.778 | 5.36 µM | 0.872 | 7 µM |
| KP-N-YS (neuroblastoma, adherent) | 0.933 | > 10.2 µM | 0.977 | > 1.02 µM | – | – | 0.791 | 8.41 µM | 0.729 | 3.19 µM |
| LB647-SCLC (small cell lung carcinoma, semi-adherent) | 0.921 | > 10.2 µM | 0.985 | > 1.02 µM | 0.933 | > 10 µM | 0.947 | > 16 µM | – | – |
| MHH-NB-11 (neuroblastoma, adherent) | 0.967 | > 10.2 µM | 0.985 | > 1.02 µM | – | – | 0.86 | 15.6 µM | 0.77 | 4.29 µM |
| MOLT-13 (T-cell lymphoblastic leukaemia, suspension) | 0.941 | > 10.2 µM | – | – | 0.657 | 1.61 µM | – | – | 0.88 | 8.37 µM |
| MY-M12 (leukaemia, suspension) | 0.893 | > 10.2 µM | 0.975 | > 1.02 µM | – | – | 0.622 | 2.27 µM | 0.093 | < 0.04 µM |
| NB17 (neuroblastoma, adherent) | 0.861 | > 10.2 µM | – | – | – | – | – | – | 0.84 | 8.67 µM |
| NCI-H64 (small cell lung carcinoma, suspension) | 0.996 | > 10.2 µM | 0.988 | > 1.02 µM | – | – | 0.863 | 8.4 µM | 0.87 | 5.63 µM |
| NCI-H510A (small cell lung carcinoma, semi-adherent) | 0.944 | > 10.2 µM | 0.989 | > 1.02 µM | – | – | 0.889 | 15.6 µM | 0.852 | 6.95 µM |
| NCI-H748 (small cell lung carcinoma, suspension) | 0.889 | > 10.2 µM | 0.979 | > 1.02 µM | – | – | 0.957 | > 16 µM | 0.89 | > 10.2 µM |
| NCI-H1963 (small cell lung carcinoma, suspension) | 0.97 | > 10.2 µM | 0.991 | > 1.02 µM | – | – | 0.821 | 7.76 µM | 0.968 | > 10.2 µM |
| NCI-H2171 (small cell lung carcinoma, suspension) | 0.981 | > 10.2 µM | 0.991 | > 1.02 µM | – | – | 0.858 | 10.5 µM | 0.914 | > 10.2 µM |
| NCI-H2196 (small cell lung carcinoma, adherent) | 0.965 | > 10.2 µM | 0.973 | > 1.02 µM | – | – | 0.902 | > 16 µM | 0.805 | 5.52 µM |
| NK-92MI (lymphoid neoplasm, suspension) | 0.97 | > 10.2 µM | 0.987 | > 1.02 µM | – | – | 0.703 | 3.55 µM | – | – |
| RCC10RGB (kidney, adherent) | 0.831 | > 10.2 µM | 0.948 | > 1.02 µM | – | – | 0.755 | 11.6 µM | 0.768 | 8.59 µM |
| RL95-2 (endometrium, adherent) | 0.803 | 5.01 µM | – | – | 0.949 | > 10 µM | – | – | 0.867 | 9.05 µM |
| SCC-3 (B-cell lymphoma, suspension) | 0.989 | > 10.2 µM | 0.997 | > 1.02 µM | – | – | 0.997 | > 16 µM | 0.914 | 7.39 µM |
| SHP-77 (small cell lung carcinoma, semi-adherent) | 0.975 | > 10.2 µM | – | – | 0.986 | > 10 µM | 0.823 | 8.15 µM | 0.884 | 9.02 µM |
| SIG-M5 (acute myeloid leukaemia, suspension) | 0.842 | 4.73 µM | 0.994 | > 1.02 µM | – | – | 0.052 | < 0.0625 µM | 0.502 | 0.646 µM |
| SK-N-DZ (neuroblastoma, adherent) | 0.936 | > 10.2 µM | 0.986 | > 1.02 µM | 0.842 | 6.9 µM | – | – | 0.906 | > 10.2 µM |
| SKM-1 (haematopoietic neoplasm, suspension) | 0.955 | > 10.2 µM | – | – | 0.743 | 3.37 µM | – | – | – | – |
| SU-DHL-1 (anaplastic large cell lymphoma, suspension) | 0.978 | > 10.2 µM | 0.997 | > 1.02 µM | – | – | 0.844 | 7.04 µM | 0.916 | 7.41 µM |
| SUP-B15 (lymphoblastic leukaemia, suspension) | 0.914 | > 10.2 µM | 0.985 | > 1.02 µM | – | – | 0.521 | 1.14 µM | 0.181 | 0.0744 µM |
| SW954 (urogenital system, adherent) | 0.847 | 7.71 µM | 0.982 | > 1.02 µM | – | – | 0.62 | 2.15 µM | 0.834 | 6.79 µM |
| TALL-1 (T-cell lymphoblastic leukaemia, suspension) | 0.921 | > 10.2 µM | 0.99 | > 1.02 µM | – | – | 0.948 | > 16 µM | 0.976 | > 10.2 µM |
| TE-441-T (rhabdomyosarcoma, adherent) | 0.975 | > 10.2 µM | 0.989 | > 1.02 µM | – | – | 0.967 | > 16 µM | 0.829 | 6.03 µM |
